Data: PubChem BioAssay AID488969 (Vanderbilt High Throughput Screening Facility, 2010)
The full ranking holds about 110,000 compounds; the median of “z-score” is about -0.1, and the highest 2% start at about 2. The list shows a part of the results.

Molecular target: Metabotropic glutamate receptor 8 (Rattus norvegicus) (UniProt P70579)
Assay: mGluR8 Gi/Go-coupled signaling modulation – cell-based, rat, thallium flux, HTS, primary screen (AID 488969)
Details: HEK293 rat mGluR8, GIRK (G protein-gated inwardly rectifying potassium channel) thallium flux, FluoZin2; at 10 µM; stronger effect = higher value; submaximal glutamate (EC20) added with thallium

Chain of UniProt P70579 (P70579 whole entry, looked up): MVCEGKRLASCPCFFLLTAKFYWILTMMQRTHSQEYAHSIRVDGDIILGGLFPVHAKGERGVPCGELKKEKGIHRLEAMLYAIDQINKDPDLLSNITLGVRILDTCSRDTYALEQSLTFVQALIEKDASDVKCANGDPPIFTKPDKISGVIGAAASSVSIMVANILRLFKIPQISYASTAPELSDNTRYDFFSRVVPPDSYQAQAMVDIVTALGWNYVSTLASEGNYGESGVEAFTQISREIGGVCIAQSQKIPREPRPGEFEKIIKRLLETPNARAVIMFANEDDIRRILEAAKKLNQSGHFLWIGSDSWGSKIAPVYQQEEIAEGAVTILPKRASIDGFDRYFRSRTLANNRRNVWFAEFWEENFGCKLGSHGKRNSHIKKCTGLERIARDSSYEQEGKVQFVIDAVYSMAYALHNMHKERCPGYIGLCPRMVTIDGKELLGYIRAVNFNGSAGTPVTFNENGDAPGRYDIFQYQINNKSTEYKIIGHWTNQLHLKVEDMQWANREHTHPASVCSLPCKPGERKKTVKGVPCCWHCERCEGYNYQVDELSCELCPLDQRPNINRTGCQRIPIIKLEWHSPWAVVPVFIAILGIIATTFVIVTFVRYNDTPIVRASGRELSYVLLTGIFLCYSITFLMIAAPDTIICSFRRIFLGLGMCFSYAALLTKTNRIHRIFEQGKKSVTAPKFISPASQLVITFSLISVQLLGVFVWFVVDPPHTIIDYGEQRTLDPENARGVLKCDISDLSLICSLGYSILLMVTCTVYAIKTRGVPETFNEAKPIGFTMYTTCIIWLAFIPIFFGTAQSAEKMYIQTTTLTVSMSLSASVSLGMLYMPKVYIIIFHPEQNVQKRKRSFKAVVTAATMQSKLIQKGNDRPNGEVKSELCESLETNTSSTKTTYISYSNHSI

Structure (SMILES)	z-score
Cc1ccc(C(=O)N/C(=C\c2cccs2)c2nc3ccccc3[nH]2)cc1	-0.263
COC(=O)CN(c1ccc(C)c(Cl)c1)S(C)(=O)=O	-0.114
CCCc1nnc(SCC(=O)N2C(C)CCCC2C)n1CC1CCCO1 (stereo unspecified)	-0.37
COC(=O)C1CCCN1S(=O)(=O)c1ccc2ccccc2c1 (stereo unspecified)	2.41
COc1cc2cc(CN(CCN3CCCC3)C(=O)Nc3ccccc3Cl)c(=O)[nH]c2cc1OC	-0.447
O=C(CCCCCN1C(=O)CCC1=O)NCc1ccccc1	-0.0832
COC(=O)c1sc2nc(-c3ccccc3)c3c(c2c1N)CCCC3	-0.0945
Cc1ccc(S(=O)(=O)N(C)CCCC(=O)N2CCN(C=O)CC2)cc1	0.113
Cc1ccc(S(=O)(=O)N(C)c2ccc(OCC(=O)Nc3nc(-c4ccccc4)cs3)cc2)cc1	-0.277
CCn1c(=O)cc(SCC(=O)N(C)Cc2ccccc2)c2ccccc21	-0.0404
CCSc1ccccc1C(=O)Nc1cc(C)on1	0.549
C=CCc1cccc(CNc2c(C)n(C)n(-c3ccccc3)c2=O)c1O	0.0234
CCSc1nnc(-c2ccc(Cl)cc2Cl)o1	-0.571
CCOC(=O)N1CCN(C(=O)c2ccc(N(Cc3ccccc3)S(C)(=O)=O)cc2)CC1	-0.371
CCOC(=O)c1oc2ccccc2c1NC(=O)Cc1cccs1	-0.898
CC(=O)N1CCN(S(=O)(=O)c2cccc(C(=O)Nc3nc4ccccc4[nH]3)c2)CC1	0.114
O=C(O)c1cccc(NC(=S)NC(=O)C(c2ccccc2)c2ccccc2)c1	-0.745
CC(C)c1nnc(-c2ccc(Cl)cc2)c(N(C)C)n1	-0.269
O=C1/C(=C/c2cccnc2)SC(=S)N1C1CCS(=O)(=O)C1 (stereo unspecified)	-0.0337

Structure (SMILES)	z-score
N#C/C(=C\N1CCN(Cc2ccc3c(c2)OCO3)CC1)c1nc2ccccc2s1	-0.00246
COc1ccccc1N1CCN(C(=O)CSc2nc(N)cc(=O)[nH]2)CC1	-0.298
c1ccc(Cn2nnnc2CN2CCOCC2)cc1	-0.23
C/C(=N\NC(=S)NC1CCCCC1)c1ccc(C#N)cc1	1.56
CCc1ccccc1N(CC(=O)N1CCN(c2ccc(F)cc2)CC1)S(C)(=O)=O	-0.106
Cc1cccc(-c2nnc(SCc3cc(=O)[nH]c4ccccc34)n2C)c1	0.106
CCOC(=O)C(O)(CC(=O)c1ccc(OC)cc1)C(F)(F)F (stereo unspecified)	-1.17
CN(CC(=O)Nc1nc2ccc(F)cc2s1)S(=O)(=O)c1ccc(Cl)cc1	0.625
Oc1[nH]c2ccccc2c1C=NCC1CCCO1 (stereo unspecified)	-0.00202
CCCN=C1N/C(=C\c2ccco2)C(=O)N1c1ccccc1	0.0674
Cc1nc2ccccn2c1C(=O)/C=C/c1ccc(F)cc1	-0.0172
CCC(C)N1C(=O)CCC1C(=O)N1CCN(c2ccccc2F)CC1 (stereo unspecified)	0.402
S=c1nc2ccccc2c2nc(-c3ccccc3)[nH]n12	2.81
Cc1cc(NCCN2CCOCC2)n2nc(C)c(-c3ccccc3)c2n1	0.00731
Cc1oc2c(CN3CCOCC3)c(O)ccc2c(=O)c1-c1ccccc1	1.15
COc1ccccc1Nc1ncnc2nc[nH]c12	-0.317
O=C1CN=C(Nc2ccccc2)N1Cc1cccs1	-0.659
CCN(CC)C(=O)CSC1=C(C#N)C(c2cccs2)C=C(C)N1 (stereo unspecified)	0.282
C/C(Cc1ccccc1)=N\NC(=O)c1cccnc1	-0.311

Structure (SMILES)	z-score
CC(C)Sc1cc(N2CCCC2)nc(-c2ccccc2)n1	-0.246
COC(=O)CNC(c1ccccc1)c1cc(Br)ccc1NC(=O)CCN1CCOCC1 (stereo unspecified)	-0.271
FC(F)(F)c1cc(C(F)(F)F)c2ccc(Oc3ccccc3)nc2n1	-0.296
CCOC(=O)C1CCN(C(=O)Cn2cc(C(=O)C3CC3)c3ccccc32)CC1	-0.86
CCC(C)[C@H](NC(=O)NCc1cccc(OC)c1)C(=O)OC (stereo partly specified)	0.846
CC1Cc2ccccc2N1C(=O)CN1C(=O)C(=O)N(Cc2ccccc2)C1=O (stereo unspecified)	-0.177
CC(C)(C)c1ccc(Oc2cccc(C3CC(=O)C(C4NCCc5ccccc54)C(=O)C3n3cncn3)c2)cc1 (stereo unspecified)	0.0317
O=C(NC(Nc1cc(C(F)(F)F)ccc1Cl)C(=O)c1ccccc1)c1ccccc1 (stereo unspecified)	-0.142
Oc1oc(-c2ccccc2)nc1C=NCc1ccccc1	0.637
Cc1ccc(S(=O)(=O)CCC(=O)NCc2ccco2)cc1	-0.231
Cn1c(=O)[nH]c(=O)c2c1nc(N1CCCCC1)n2CCCSc1nnnn1-c1ccccc1	-0.187
CC(=O)Nc1sc(N/N=C\c2ccco2)nc1-c1cccs1	-0.754
Cc1cccn2c(=O)c3cc(C#N)c(=N)n(Cc4cccnc4)c3nc12	-0.055
COc1cc(N)ccc1NC(=O)c1cccs1	-0.15
Cc1nn(C)c(Oc2cccc(Cl)c2)c1C(=O)Nc1ccc(F)cc1	-0.706
Cc1ccc(-c2csc(NC(=S)NC(=O)c3cc4ccccc4o3)n2)cc1	-0.451
Clc1ccccc1-c1ccc(/C=N/n2cnnc2)o1	0.334
COc1ccc(NC(=O)CSc2nnc(Cc3cccn3C)n2CCc2ccccc2)c(OC)c1	-0.229
